# Measurements taken from PubChem BioAssay AID686979 (National Center for Advancing Translational Sciences (NCATS), 2013).
# The campaign covered roughly 420,000 compounds. About 50,000 (12%) were called active. The inconclusive results got no clear call from the source; some entries with a clear call stand among them for comparison. Calls follow the shape of the dose curve; as a rule, active = well fitted inhibition curve with a large enough effect; inconclusive = small, poorly fitted or top-dose-only effect; inactive = flat fitted curve, though single readings scatter. No potency is given beside an inconclusive call; the fits are too rough.
# Assay: qHTS for Inhibitors of human tyrosyl-DNA phosphodiesterase 1 (TDP1): qHTS in cells in presence of CPT; also: nearly all actives have a fitted effect of over 55% in size
# Conditions: chicken DT40 Tdp1-/-;hTDP1 cells + 20 nM CPT, ATP luminescence, 48 h; activity change, negative = growth inhibition: at 46.2 µM (top of the series) unless noted
# Procedure, shortened: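 Chicken DT40 Tdp1-/- cells complemented with human TDP1, 400 cells/well, exposed to compounds plus 20 nM camptothecin for at least 48 h at 37 C; viability read as ATP content by CellTiter-Glo luminescence.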
# % is scaled to controls: 0 for no effect and ±100 for the full control effect; potency is read from the fitted curve at half-maximal effect; tags tell the direction and shape of the fitted curve.
SMILES,Potency,"activity change, negative = growth inhibition"
O=C(c1cccs1)N(Cc1cccnc1)c1nc2c(Cl)cccc2s1,inactive,
CCOc1ccc(-c2nc(C#N)c(NCc3ccco3)o2)cc1,active: 20.6 µM,
CCCNC(=O)c1ccc(N2CCC3(CC2)CC(c2cccc(Br)c2)=NO3)c(NC(=O)c2ccccc2)c1,"inconclusive [inhibitor, single point]",
CCc1ccccc1NC(=S)N(CCCN1CCOCC1)Cc1cccs1,"inconclusive [inhibitor, single point]",
CC(C)NC(=O)N(C)C[C@H]1Oc2cc(Br)ccc2S(=O)(=O)N([C@H](C)CO)C[C@H]1C,inactive,
COc1cc(CNCc2ccc(C)cc2)cc(OC)c1OC,"inconclusive [inhibitor, partial curve]",
O=C(CCc1nc2cccnc2n1Cc1cccs1)Nc1cccc(C(F)(F)F)c1,active: 16.4 µM,
CCCN(CCC)S(=O)(=O)c1ccc(Cl)c(OC)c1,"inconclusive [inhibitor, single point]",
O=C(Cc1c[nH]c2ccccc12)NC1(C(=O)NC2CCCCC2)CCCCC1,,inconclusive: -31.4% [inhibitor]
S=C(NC1CC2CCC1C2)N1CCN(c2cccc(Cl)c2)CC1 (configuration not stated),"inconclusive [inhibitor, single point]",
COc1cc(NC(=S)NCCc2ccccc2)c(OC)cc1NC(=O)C(C)C,inactive,
CCOC(=O)CCNC(=O)N1CCCC(CNS(=O)(=O)c2cccs2)C1 (configuration not stated),inactive,
Oc1ccc(-c2nc3ccccn3c2NCc2ccc3c(c2)OCO3)cc1,"inconclusive [inhibitor, single point]",
Cn1c(=O)c2cc(NC(=O)CCc3ccccc3)ccc2n1Cc1cccc(C(F)(F)F)c1,active: 16.4 µM,
CC(C)(C)c1ccc(S(=O)(=O)NCC(=O)N2CCN(Cc3ccccc3)CC2)cc1,"inconclusive [inhibitor, single point]",
CC(C)n1c2ccccc2c2nnc(SCC(=O)Nc3ccccc3C(=O)O)nc21,"inconclusive [inhibitor, single point]",
O=C1CC(c2ccccc2F)c2c(c3ccccc3[nH]c2=O)O1 (configuration not stated),inactive,
N#Cc1cccc(-c2ccc3ncnc(NCc4cccs4)c3c2)c1,"inconclusive [inhibitor, single point]",
COc1cccc(C2c3cc4c(cc3OC(C)(N3CCCC3)C2C)OCO4)c1O (configuration not stated),active: 13 µM,
COCCN=c1scc(-c2ccco2)n1/N=C/c1ccc(O)c(O)c1O,"inconclusive [inhibitor, single point]",
Cc1ccc(NC(=O)C(C)OC(=O)Cc2c[nH]c3ccccc23)cc1S(=O)(=O)N1CCOCC1 (configuration not stated),inactive,
COc1cccc(/C=N/NC(=O)C(=O)N2CCCC2)c1O,"inconclusive [inhibitor, single point]",
CC1(C(=O)NS(=O)(=O)c2ccccc2Cl)CCN1C(=O)Cc1cccs1 (configuration not stated),inactive,
CN(C)C(=O)c1ccc(NC(=O)Cn2nnnc2-c2ccccc2F)cc1,active: 14.6 µM,

SMILES,Potency,"activity change, negative = growth inhibition"
CCOC(=O)C1=C(CC)Nc2ccccc2N/C1=N\S(=O)(=O)c1ccccc1OC,inactive,
Cc1c(C(=O)NCc2ccccc2)c(-c2ccccc2)nn1-c1ccccc1,active: 23.1 µM,
COc1ccc(N2CCN(C(=O)CSc3n[nH]c(-c4ccccc4)n3)CC2)cc1,"inconclusive [inhibitor, single point]",
CC(=O)Nc1ccc(NC(=O)CSc2ncc(C(=O)Nc3ccc(F)cc3)c(=O)n2C)cc1,active: 18.4 µM,
CCCCN=CC1=C(O)C(C(=O)OC)C(C)(C)CC1=O (configuration not stated),inactive,
Cc1cc(C)c(C(=O)CC(=O)c2cccnc2)c(C)c1,"inconclusive [inhibitor, single point]",
Cc1occc1C(=O)N/N=C/C=C/c1ccc(N(C)C)cc1,"inconclusive [inhibitor, single point]",
CC(=O)OC1CCC2(C)C(CCC3C2CC(=O)C2(C)C3CC(C(C(C)=O)C(C)=O)C2C(C)=O)C1 (configuration not stated),"inconclusive [inhibitor, single point]",
COc1cccc(C2(O)CCN(C(=O)c3cccs3)CC2)c1,inactive,
CCOC(=O)c1c(NC(=O)CN2C(=O)CN(C)C2=O)sc(C)c1C,inactive,
COc1ccc(Nc2c3c(nc4ccc(NC(=O)/C=C/c5cc(OC)c(OC)c(OC)c5)cc24)CCCC3)cc1OC,active: 1.03 µM,
O=C(Nc1ccccc1O)c1ccccc1O,"inconclusive [inhibitor, partial curve, poor fit]",
O=C(C1=C(O)C(=O)N(Cc2ccco2)C1c1cccnc1)c1cc2ccccc2o1 (configuration not stated),"inconclusive [inhibitor, single point]",
O=C(N[C@H](Cc1cc(=O)[nH]c2ccccc12)C(=O)O)c1ccc(Cl)cc1,"inconclusive [inhibitor, single point]",
O=C(c1cc2cc(F)ccc2[nH]1)N1CCC(Cc2ccccc2)CC1,inactive,
C[C@@H]1CC=C[C@H]2[C@H]1C(=O)N(Cc1ccccc1)[C@H]2c1ccc2ccccc2c1,"inconclusive [inhibitor, single point]",
CN(CC(=O)Nc1cccc(F)c1)CC(=O)Nc1ccc(Cl)cc1[N+](=O)[O-],"inconclusive [inhibitor, single point]",
COc1ccccc1C(CNC(=O)c1cccc(S(=O)(=O)N2CCCc3ccccc32)c1)N(C)C (configuration not stated),"inconclusive [inhibitor, single point]",
CCN(CC)C1CCN(C(=O)c2cc(COc3ccc(-n4cncn4)cc3)on2)C1 (configuration not stated),inactive,
Cc1ccc(NC(=O)CCC(=O)N/N=C/c2cccnc2)cc1,inactive,
CCOC(=O)C1(CC2CCCCO2)CCN(Cc2nccn2-c2ccc(OC)cc2)CC1 (configuration not stated),"inconclusive [inhibitor, single point]",
COc1ccc(CNC(=O)CN2C(=O)NC(C)(c3ccc(Cl)cc3)C2=O)cc1 (configuration not stated),inactive,
O=C(CN1C(=O)/C(=C\c2ccc(F)cc2)Oc2ccccc21)N1CCN(c2ccccn2)CC1,"inconclusive [inhibitor, partial curve]",
COc1ccc(N(CC(=O)NCc2ccc(F)cc2)S(=O)(=O)c2c(C)noc2C)cc1,"inconclusive [inhibitor, single point]",

SMILES,Potency,"activity change, negative = growth inhibition"
Cc1c(C(=O)N2CCN(c3ccccn3)CC2)oc2c(F)cccc12,inactive,
COc1ccc(NC(=O)C(c2ccccc2)c2ccccc2)c(OC)c1,"inconclusive [inhibitor, partial curve, poor fit]",
CC(C)OCCCNc1ncnc2c1[nH]c1ccc(F)cc12,active: 2.91 µM,
COc1cc(/C=C2/SC(=O)N(CC(=O)N3CCCC3)C2=O)ccc1Oc1ccc([N+](=O)[O-])cn1,"inconclusive [inhibitor, single point]",
COc1ccc2c(c1)CCc1cnc(-n3ncc(C(=O)N(C)CCc4ccccn4)c3C)nc1-2,"inconclusive [inhibitor, single point]",
CN(C)c1ccc(CN(CC2CCCO2)C(=O)COc2ccccc2Cl)cc1 (configuration not stated),"inconclusive [inhibitor, single point]",
CCOCCCn1c(SCC(=O)NC2CCCC2)nc2ccccc2c1=O,"inconclusive [inhibitor, single point]",
COc1ccccc1-c1cc(Nc2ccn[nH]2)ncn1,"inconclusive [inhibitor, single point]",
COc1ccc(Cc2nnc(SCC(=O)c3ccc(OC)cc3)o2)cc1,"inconclusive [inhibitor, single point]",
CCCNC(=S)Nc1cc2oc3ccccc3c2cc1OC,"inconclusive [inhibitor, single point]",
Cc1ccccc1C(=O)N(Cc1ccc(N(C)C)cc1)Cc1ccco1,"inconclusive [inhibitor, single point]",
COCCN(CCOc1cc(C)cc(C)c1)Cc1ccc(Cl)cc1,"inconclusive [inhibitor, single point]",
Cc1ccc(C(=O)c2c[nH]c(C(=O)NCCCN3CCOCC3)c2)cc1,inactive,
CC(C)NC(=O)c1cc2cc(Br)ccc2oc1=O,"inconclusive [inhibitor, single point]",
Cc1ccc(C(=O)COC(=O)CSc2cccc3cccnc23)c(C)c1,"inconclusive [inhibitor, single point]",
CCOc1cccc(/C=C/c2ccc3ccccc3n2)c1OC(C)=O,active: 18.4 µM,
COc1ccc(Cn2cc(C(=O)O)c(=O)c3ccccc32)cc1,"inconclusive [inhibitor, single point]",
CCCc1nc2c3ccccc3ccn2c1Cc1cccc(Cl)c1,"inconclusive [inhibitor, single point]",
CC(Sc1ccccn1)C(=O)NC1CCCC1 (configuration not stated),inactive,
Cc1oc(C)c2c(=O)ccc3c(c12)OC(N)=C(C#N)C3c1ccccc1Cl (configuration not stated),"inconclusive [inhibitor, single point]",
O=c1c2ccccc2sn1-c1ccccc1F,active: 2.59 µM,
Nc1ccnc2c1ncn2[C@@H]1O[C@H](CO)[C@@H](O)[C@H]1O,active: 11.6 µM,
CCCC1CCc2c(c3ccccc3[nH]c2=O)O1 (configuration not stated),"inconclusive [inhibitor, partial curve]",
Cc1cc(N2C(=O)C=CC2=O)c([N+](=O)[O-])cc1C,active: 0.82 µM,
